# Results as given in PubChem BioAssay AID488969 (Vanderbilt High Throughput Screening Facility, 2010).
# Over roughly 110,000 compounds, “z-score” has its median near -0.1; the highest 2% begin near 2. Some of the results follow. Active and inactive are the calls of the source.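 Rule for the calls: active = z-score in the third read window above 3 or below -3; inactive = the rest.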
# Target: Metabotropic glutamate receptor 8 (Rattus norvegicus) (UniProt P70579)
# Experiment: mGluR8 Gi/Go-coupled signaling modulation – cell-based, rat, thallium flux, HTS, primary screen (AID 488969)
# Settings: HEK293 rat mGluR8, GIRK (G protein-gated inwardly rectifying potassium channel) thallium flux, FluoZin2; at 10 µM; stronger effect = higher value
# UniProt P70579, sequence (P70579 whole entry, looked up): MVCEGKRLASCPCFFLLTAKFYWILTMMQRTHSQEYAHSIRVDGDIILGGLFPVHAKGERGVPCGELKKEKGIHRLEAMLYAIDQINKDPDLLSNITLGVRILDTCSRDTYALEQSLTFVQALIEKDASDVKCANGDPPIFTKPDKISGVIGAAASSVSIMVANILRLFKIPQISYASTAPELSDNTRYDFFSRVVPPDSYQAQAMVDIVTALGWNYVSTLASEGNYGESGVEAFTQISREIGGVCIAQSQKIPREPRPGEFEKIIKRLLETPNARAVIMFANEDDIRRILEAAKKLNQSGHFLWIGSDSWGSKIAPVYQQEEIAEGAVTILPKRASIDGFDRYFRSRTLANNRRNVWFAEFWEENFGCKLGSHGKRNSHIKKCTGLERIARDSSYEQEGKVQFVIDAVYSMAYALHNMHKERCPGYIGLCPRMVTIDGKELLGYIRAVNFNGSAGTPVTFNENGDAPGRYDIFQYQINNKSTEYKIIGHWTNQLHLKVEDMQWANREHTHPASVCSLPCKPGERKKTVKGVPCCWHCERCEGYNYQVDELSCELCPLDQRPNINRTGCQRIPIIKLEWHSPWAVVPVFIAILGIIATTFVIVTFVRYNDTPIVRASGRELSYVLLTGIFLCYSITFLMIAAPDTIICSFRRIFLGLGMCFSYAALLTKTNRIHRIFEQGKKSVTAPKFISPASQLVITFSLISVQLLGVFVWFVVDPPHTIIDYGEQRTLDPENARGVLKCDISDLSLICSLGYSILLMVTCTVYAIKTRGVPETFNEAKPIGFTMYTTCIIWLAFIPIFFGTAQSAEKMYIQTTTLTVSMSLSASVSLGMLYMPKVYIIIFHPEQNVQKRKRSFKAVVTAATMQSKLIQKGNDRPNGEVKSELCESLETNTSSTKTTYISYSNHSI
row,SMILES,z-score
1,COC(=O)C(O)(c1c(C)[nH]c2ccccc12)C(F)(F)F (stereo unspecified),0.0454
2,S=C1CN=C(c2ccccc2Cl)c2cc(Cl)ccc2N1,active: 14.6
3,C=Cn1ccnc1P(=S)(c1cc(N(CC)CC)ns1)c1nccn1C=C,0.0631
4,Clc1cccc(Cl)c1CN1CCN(c2ccccc2)CC1,-1.12
5,CCOC(=O)C(=O)NC1CCSC1=O (stereo unspecified),-0.109
6,O=c1[nH]c(=O)n(-c2ccccc2Cl)c(O)c1C=NCCN1CCCCC1,0.707
7,O=c1[nH]c(=O)n(CCc2ccccc2)c(O)c1C=NCc1ccc2c(c1)OCO2,-0.412
8,N=c1sccn1Cc1ccc(Cl)cc1Cl,0.151
9,COc1ccccc1N1CCN(Cc2c(F)cccc2F)CC1,-0.0979
10,Cc1ccc2c(c1)=C/C(=C\c1c(O)[nH]c(=O)[nH]c1=O)C(=O)N=2,-0.209
11,Nc1ccc(S(=O)(=O)N2CC3CC(C2)c2cccc(=O)n2C3)cc1 (stereo unspecified),-0.29
12,CC(C)Cn1cc(C(=O)N2CCC3(CC2)OCCO3)c2c3ccccc3n(C)c2c1=O,-0.259
13,CCOC(=O)C(NC(=O)CCl)(Nc1ccc(C(O)(C(=O)OCC)C(F)(F)F)cc1)C(F)(F)F (stereo unspecified),0.218
14,C=Cn1ccnc1P(=S)(c1ccn(C)c1)c1nccn1C=C,1.8
15,CC(NCc1cccc(Cl)c1Cl)C(O)c1ccccc1 (stereo unspecified),0.177
16,N#CCC(=O)NN1Cc2ccccc2C1=N,-0.155
17,CCOP(=O)(OCC)C(NC(=O)c1ccc(C)cc1)=C(Cl)Cl,-0.254
18,CN1C(=O)/C(=C\c2ccc(N3CCCCC3)o2)C(=O)NC1=S,-0.412
19,CCOP(=S)(OCC)c1ccc(N(C)C)cc1,-0.539
20,CCOc1ccc(N=Cc2c(O)n(C(C)(C)C)c(=O)[nH]c2=O)cc1,-0.283
21,CCc1nc2ccccc2c(=O)n1-c1ccccc1[N+](=O)[O-],-0.229
22,CCOC(=O)C1=C(N)OC(C)=C(C(=O)OCCOC)C12C(=O)Nc1ccccc12 (stereo unspecified),0.399
23,O=C1CC(=O)N(c2cccc(Cl)c2)C(=O)N1,-0.191

row,SMILES,z-score
1,CN(C)CCc1nc2ccccc2c(=O)n1-c1ccccc1,-0.0106
2,O=[N+]([O-])c1ccccc1CNCCc1ccc(F)cc1,-0.191
3,S=C1CN=C(c2ccccc2)c2cc(Cl)ccc2N1,active: 4.29
4,CC(C)CCP(=O)(O)c1ccccc1,-0.0996
5,CCN(CC)CCN1Cc2ccccc2C1=N,0.26
6,O=C(Nc1ccc(F)cc1F)c1cccnc1Oc1cccc(C(F)(F)F)c1,-0.0465
7,CCCC1=C(C(=O)OCC)C2(C(=O)Nc3ccc(C)cc32)C(C#N)=C(N)O1 (stereo unspecified),0.0382
8,CC(C)Oc1ccc(C2C(C#N)=C(N)Oc3c2c(=O)oc2ccccc32)cc1 (stereo unspecified),-0.191
9,O=C(Nc1cccc(OC(=O)N2CCOCC2)c1)N1CCOCC1,0.335
10,O=C(Cc1ccccc1)N1CCN(Cc2ccc([N+](=O)[O-])cc2)CC1,-0.111
11,CCN(CC)S(=O)(=O)c1ccc(C)c(NCC(=O)Nc2ccc(C#N)c(Cl)c2)c1,-0.264
12,O=c1c2ccccc2nc(-c2ccco2)n1-c1ccccc1,0.771
13,CCN(CC)CCCN=Cc1c(O)n(-c2ccccc2F)c(=O)[nH]c1=O,0.886
14,CCOC(=O)c1cc(C(O)(C(=O)OC)C(F)(F)F)c(/N=C/N(C)C)o1 (stereo unspecified),-0.0079
15,CC(C)c1ccc(OCC(=O)N2CCN(C)CC2)c(Br)c1,-0.292
16,CC(C)NS(=O)(=O)c1ccc(OCC(=O)N2CCN(Cc3ccc4c(c3)OCO4)CC2)c(Cl)c1,0.0778
17,CC(=O)c1ccc2c(c1)C1C(Cl)C(Sc3ccccc3[N+](=O)[O-])CC1C(c1ccccc1[N+](=O)[O-])N2 (stereo unspecified),1.22
18,CN1CCN(c2c[nH]c(=O)[nH]c2=O)CC1,-0.155
19,CCN(CC)CCNC(=O)c1c(O)c2ccccc2n(Cc2ccccc2)c1=O,0.0206
20,OC(c1ccccc1)(c1ccccc1)C1CCNCC1,0.688
21,COc1ccc(CCn2c(O)c(/C=N/NC(=O)c3ccncc3)c(=O)[nH]c2=O)cc1OC,-0.155
22,CC1=NOC2(C)Nc3ncnn3C(c3ccccc3)C12 (stereo unspecified),0.231
23,CCOP(=O)(OCC)C(c1ccccc1)N(C)C=O (stereo unspecified),-0.092

row,SMILES,z-score
1,CCCCOc1ccc(CCN)cc1Cl,0.62
2,CCC1CN(C)CCC1(OC(C)=O)c1ccccc1 (stereo unspecified),0.325
3,CCCCN1C(=O)NC(=O)/C(=C/c2cnc(SC)nc2)C1=O,-0.221
4,C=CCNC(=O)c1c(N)n(CCN2CCOCC2)c2nc3ccccc3nc12,-0.367
5,C=CC1CN2CCC1CC2c1[nH]c2ccccc2c1CCO (stereo unspecified),-1.53
6,CC(N)Cc1ccccc1Sc1ccc(O)cc1 (stereo unspecified),0.143
7,COc1ccc(N2C(=O)CC(N3CCC(n4c(=O)[nH]c5ccccc54)CC3)C2=O)cc1 (stereo unspecified),-0.14
8,CCc1ccc(-n2c(O)c(/C=N/NC(=O)c3ccncc3)c(=O)[nH]c2=O)cc1,-0.0293
9,O=c1c2ccccc2nc(-c2ccc(Cl)cc2Cl)n1-c1ccncc1,-0.348
10,CCCCN1C(=O)NC(=O)C2(Cc3cc(C)ccc3N(C)C2)C1=O (stereo unspecified),-0.417
11,COc1ccc(CCNCc2ccc(F)cc2)cc1OC,-2.07
12,COc1ccc(OC)c(N2C(=O)NC(=O)C(CCc3ccncc3)(CCc3ccncc3)C2=O)c1,-0.482
13,Cc1ccc(-c2nc3ccccc3c(=O)n2-c2ccncc2)cc1,-0.234
14,O=C(COc1ccccc1)N1CCN(C2CC3CCC2C3)CC1 (stereo unspecified),0.161
15,CC12CCC3C(CC=C4CC(O)CCC43C)C1C/C(=C\c1ccccc1F)C2=O (stereo unspecified),0.264
16,CN1CCN(Cc2ccc(Br)s2)CC1,0.759
17,CCC(NC(=O)OC(C)(C)C)C(=O)Oc1cc(C)cc2oc(=O)c3c(c12)CCC3 (stereo unspecified),0.373
18,CC(=NCCCN1CCOCC1)c1c(O)[nH]c(=O)[nH]c1=O,-0.225
19,COC(=O)C(C)Oc1cc(C)cc2oc(=O)c3c(c12)CCCC3 (stereo unspecified),-1.47
20,O=C(c1cc2ccccc2oc1=O)N1CCC2(CC1)OCCO2,0.602
21,COc1ccc(CCNC(C)CCc2ccc(OC)cc2)cc1 (stereo unspecified),0.803
22,Cc1ccc(C2=NCC(=O)N(CC(=O)N3CCCCC3)c3sc(C)c(C)c32)cc1,0.904
23,COc1ccc(-c2nc3ccccc3c(=O)n2-c2nccs2)cc1,-0.0572

row,SMILES,z-score
1,Cc1cccc(OP(=O)(NCc2ccccc2)Oc2cccc(C)c2)c1,-0.0782
2,COc1ccc(OCC(=O)N2CCN(Cc3c[nH]c4ccccc34)CC2)cc1,0.374
3,CCCC(C)C1(CC)C(=O)NC(=Nc2ccccc2)NC1=O (stereo unspecified),-0.154
4,CCCC[N+]12CCC(CC1)C(=C(c1ccccc1)c1ccccc1)C2,-0.0375
5,CC1(C)N=C(c2ccccc2)[C@@H]2C(c3ccc([N+](=O)[O-])cc3)N21 (stereo partly specified),-0.25
6,NC1=Nc2ccccc2Oc2ccccc21,-0.394
7,O=C(CNC(=O)c1cccc(Cl)c1)Nc1ccc(Br)cc1C(=O)c1ccccc1,0.836
8,Cc1ccc(C2NC(=S)NC(c3ccc(C)cc3)C23C(=O)NC(=O)NC3=O)cc1 (stereo unspecified),-0.0146
9,Cc1cccnc1-n1c(-c2ccccc2)nc2ccccc2c1=O,0.282
10,CCOC(=O)Cn1cc(C(=O)c2ccccc2F)c2ccccc21,0.231
11,CCOC(=O)C1=C(N)OC2=C(C(=O)CCC2)C12C(=O)Nc1ccccc12 (stereo unspecified),-0.00188
12,COCCCn1c(-c2ccc(OC)cc2)cc(C(=O)NC2CCCCCCC2)c1C,-0.648
13,CN(C)CCCN=Cc1c(O)n(CCc2ccc(F)cc2)c(=O)[nH]c1=O,-0.124
14,CCN(CC)c1ccc(N=Cc2c(O)n(CCC3=CCCCC3)c(=O)[nH]c2=O)cc1,-0.238
15,Cc1ccc(N2CCN(CCc3ccccc3)CC2)cc1,-0.159
16,CC12CN3CN(C1)CC(c1ccccc1)(C3)C2=O,-0.165
17,CCOc1c(P(=S)(N(C)C)N(C)C)c(C)nn1-c1ccccc1,0.0269
18,CCOC(=O)C1SC2(C(F)(F)F)CC1(O)c1c(C)cc(C)nc1O2 (stereo unspecified),-0.0267
19,CN(C)c1ccc(C(=O)c2ccc(N(C)C)cc2)cc1,-0.127
20,CCCCn1c(O)c(C(C)=Nc2ccc(C(=O)O)cc2)c(=O)[nH]c1=O,-0.586
21,O=C(COc1ccccc1)c1cn(Cc2ccccc2)c2ccccc12,-0.418
22,O=C(NC1(C(F)(F)F)Oc2ccccc2O1)N1CCC2(CC1)OCCO2,0.664
23,Cc1nn(Cc2ccccc2Cl)c(Cl)c1C(=O)OC(C(=O)NC(N)=O)C(C)C (stereo unspecified),0.0386

row,SMILES,z-score
1,COc1cc(NC(=O)CN2C3CCC2CC(O)(c2cccnc2)C3)cc(OC)c1 (stereo unspecified),0.0315
2,COc1cc(C(c2c(C)[nH]n(-c3ccccc3)c2=O)c2c(C)[nH]n(-c3ccccc3)c2=O)cc(OC)c1OC,-0.358
3,O=C(c1cccs1)c1cn(Cc2ccccc2Cl)c2ccccc12,-0.523
4,COC(=NC1CCCCC1)C(O)c1c[nH]c2ccccc12 (stereo unspecified),-0.119
5,C=CCn1c(O)c(C=NCCCOc2ccc(CC)cc2)c(=O)[nH]c1=S,0.034
6,O=C(Cc1ccccc1)Oc1ccc(N2C(=O)C3CCCCC3C2=O)cc1 (stereo unspecified),0.168
7,CC(=O)Nc1ccccc1C(=O)OCc1ccc(C(=O)c2ccccc2)cc1,-0.427
8,COCCOC(=O)c1c(N)n(Cc2ccco2)c2nc3ccccc3nc12,active: -3.61
9,CC(=O)c1c(O)n(C)c(=S)n(-c2ccccc2)c1=O,-0.388
10,O=c1cc(CN2CC=C(c3ccccc3)CC2)c2c(ccc3ccccc32)o1,-0.0659
11,CN1CCCC(C(=O)c2ccccc2)C1 (stereo unspecified),-0.251
12,CCCCCCN=Cc1c(O)n(C)c(=O)n(C)c1=O,-0.947
13,O=c1[nH]c(=O)n(CCc2ccccc2)c(O)c1C=NCCN1CCNCC1,-0.552
14,CCN(CC)P(=O)(NC(=O)C(Cl)(Cl)Cl)N(CC)CC.[Cl-].[Cl-].[Cl-].[Nd+3],0.056
15,Cn1c(O)c(C=NCCN2CCNCC2)c(=O)n(C)c1=O,-0.337
16,COCCOC(=O)C1=C(C)OC(N)=C(C(=O)OC)C12C(=O)Nc1ccccc12 (stereo unspecified),-0.186
17,CN1CCN(c2nccc3c2ncn3C)CC1,0.514
18,CCN(CC)c1ccc(CN2CC=C(c3ccc(F)cc3)CC2)cc1,0.0485
19,Cc1nn(C)c(C)c1/C=C1/CC2C3CC=C4CC(O)CCC4(C)C3CCC2(C)C1=O (stereo unspecified),-0.724
